{"source": "PubChem BioAssay AID1508624", "about": "(National Center for Advancing Translational Sciences (NCATS), 2021)", "note": "In all, about 48,000 compounds went through this assay and about 120 (0.25%) were called active. Another 4% or so got no clear call; they are omitted. Calls follow the shape of the dose curve; as a rule, active = well fitted activation curve with a large enough effect; inconclusive = small, poorly fitted or top-dose-only effect, or another doubt; inactive = no such curve, though single readings can be large or run the other way. Some of the results follow. Potency is read from the fitted curve at half-maximal effect.", "data": [{"test": "Primary qHTS for Identification of Small Molecule Activators of Huntingtin-Antisense Promoter Activity; also: nearly all actives have a fitted effect of over 55% in size", "conditions": "HEK293 HTT-AS promoter firefly luciferase reporter, 24 h; series mostly up to 57.5 µM; activity change, positive = activation: at the top concentration", "how_it_was_run": "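Luminescence was read after Dual-Glo reagent and a 10 min room-temperature incubation. Values were normalized to vehicle (0% activity) and zero RLU (-100% activity). Reporter HEK293 cells had been exposed to compounds (up to 57.5 uM final) for 24 h.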", "values": [{"smiles": "COc1cc(NS(=O)(=O)c2ccc(NC(=O)c3ccc(C(C)=O)cc3)cc2)nc(OC)n1", "activity change, positive = activation": "inactive: -16.8%"}, {"smiles": "CCOC(=O)c1cccc(NC(=O)N2CC(CC)Oc3ccccc32)c1", "note": "(stereo not drawn)", "activity change, positive = activation": "inactive: -21%"}, {"smiles": "COc1ccc(NC(=O)c2sc3nc4c(cc3c2N)CCCCCC4)cc1Cl", "activity change, positive = activation": "inactive: 7.06% [at 11.5 µM, percent change from vehicle, -100% = no light]"}, {"smiles": "Cc1cccc(-n2ncc(C(=O)NCc3ccco3)c2C2CCN(C(=O)OC(C)(C)C)CC2)c1", "activity change, positive = activation": "inactive: -26.3%"}, {"smiles": "Cc1nc2cccnc2n1C1CCN(S(=O)(=O)c2ccc(C(C)C)cc2)CC1", "activity change, positive = activation": "inactive: -39.3%"}, {"smiles": "O=C(CSc1ncc2c(n1)-c1ccccc1N(Cc1ccc(F)cc1)S2(=O)=O)NCc1ccccc1", "activity change, positive = activation": "inactive: 14%"}, {"smiles": "CCc1nn(CC(=O)NCCN(CC)CC)c(=O)c2cc3occc3n12", "activity change, positive = activation": "inactive: -6.76%"}, {"smiles": "Cc1cccc(CNC(=O)CCCN2C(=O)COc3ccc(C)cc32)c1", "activity change, positive = activation": "inactive: -13.8%"}, {"smiles": "CCn1c(=O)c2cc(C(=O)N(C)c3cc(Cl)c(OC)cc3OC)sc2c2ccccc21", "activity change, positive = activation": "inactive: -3.31%"}, {"smiles": "O=C(c1ccccc1Cl)N1CCN(CCc2ccccn2)CC1", "activity change, positive = activation": "inactive: -12.7%"}, {"smiles": "COc1ccc2cc3cc(C(=O)Nc4ccccc4C)oc3nc2c1", "activity change, positive = activation": "inactive: -4.5%"}, {"smiles": "COc1ccc(NC(=O)CSc2nc(C)cc(C)c2C(=O)Nc2cccc(C)c2)cc1", "activity change, positive = activation": "inactive: -26.2%"}, {"smiles": "COc1cccc(C(=O)Nc2ccccc2-c2nnc(-c3ccc(C(C)(C)C)cc3)o2)c1", "activity change, positive = activation": "inactive: -10%"}, {"smiles": "C[C@@H](NC(=O)CN(c1ccccc1)S(=O)(=O)N(C)C)c1ccccc1", "activity change, positive = activation": "inactive: -0.273%"}, {"smiles": "CCCOC(=O)c1ccc(Nc2nc3ccccc3nc2-n2nc(C)cc2C)cc1", "activity change, positive = activation": "inactive: -1.6%"}, {"smiles": "CCOc1ccc(-c2cc(CCCC(=O)NCCc3ccc(OCC)c(OCC)c3)no2)cc1", "activity change, positive = activation": "inactive: -80.4%"}, {"smiles": "Cc1ccc(NC(=O)Nc2ccc3nc(N4CCN(C)CC4)cc(C)c3c2)cc1C", "activity change, positive = activation": "inactive: -15.8%"}, {"smiles": "CCNC(=O)c1noc(-c2cc(C(C)C)c(O)cc2O)c1-c1ccc(CN2CCOCC2)cc1", "activity change, positive = activation": "inactive: -64.1%"}, {"smiles": "Cc1ccccc1NC(=O)c1ccc(F)c(S(=O)(=O)NC2CCCC2)c1", "activity change, positive = activation": "inactive: -23.1%"}, {"smiles": "CCN1CCN(C(=O)c2ccc3c(c2)N(Cc2ccccc2F)C(=O)c2ccccc2S3(=O)=O)CC1", "activity change, positive = activation": "inactive: -10.2%"}, {"smiles": "Cc1ccccc1NC(=O)Cn1c(=O)n(-c2ccc(CC(=O)NCC3CCCO3)cc2)c(=O)c2ccccc21", "note": "(stereo not drawn)", "activity change, positive = activation": "inactive: -4.33%"}, {"smiles": "COc1cccc(NC(=O)C(=O)NCC(c2ccc3c(c2)OCO3)N2CCOCC2)c1", "note": "(stereo not drawn)", "Potency": "active: 4.47 µM"}, {"smiles": "O=C(Cn1c(=O)n(-c2ccc(Cl)cc2)c(=O)c2sc3ccccc3c21)NC1CCCCC1", "activity change, positive = activation": "inactive: -4.47%"}, {"smiles": "COc1ccc(-c2cc(C(F)(F)F)nc(NCc3ccccc3)n2)cc1", "activity change, positive = activation": "inactive: -24.1%"}, {"smiles": "COc1cc(OC)c(NC(=O)CCn2cccn2)cc1Cl", "activity change, positive = activation": "inactive: -4.02%"}, {"smiles": "CN(Cc1ccccc1)C(C(=O)NC1CCCCC1)c1ccc(Cl)cc1", "note": "(stereo not drawn)", "activity change, positive = activation": "inactive: 8.73%"}, {"smiles": "Fc1ccc(C(Nc2ccc(Cl)c(C(F)(F)F)c2)c2nnc(-c3ccccc3)o2)cc1", "note": "(stereo not drawn)", "activity change, positive = activation": "inactive: -39%"}, {"smiles": "CC(C=CC=C(C)C=CC1=C(C)CCCC1(C)C)=CC=CC=C(C)C=CC=C(C)C=CC1=C(C)CCCC1(C)C", "activity change, positive = activation": "inactive: -7.92%"}, {"smiles": "Cc1cn2c(=O)cc(COC(=O)c3cccc(NC(=O)COc4ccc(Cl)cc4)c3)nc2s1", "activity change, positive = activation": "inactive: -6.9%"}, {"smiles": "Cc1ccc(CCNC(=O)c2cc3sccc3n2Cc2ccc(F)cc2)cc1", "activity change, positive = activation": "inactive: -16.2%"}, {"smiles": "COC(=O)c1c(NC(=O)COc2ccccc2Cl)sc2c1CCC(C(C)(C)C)C2", "note": "(stereo not drawn)", "activity change, positive = activation": "inactive: -4.52%"}, {"smiles": "COC(=O)c1ccc(Cl)cc1NC(=O)N1CCC(CN2CCCC2)CC1", "activity change, positive = activation": "inactive: -10.2%"}, {"smiles": "CC(C)(O)CCc1ccc(OCc2cc(-c3cccc(OC(F)F)c3)c3ncccc3c2)cc1", "activity change, positive = activation": "inactive: -8.62%"}, {"smiles": "Cc1ccc(C(=O)c2cn(Cc3ccccc3F)c3cc4c(cc3c2=O)OCO4)cc1", "activity change, positive = activation": "inactive: 1.74%"}, {"smiles": "N#C/C(=C\\c1ccc(Br)cc1)c1nc(-c2cc3cc(Br)ccc3oc2=O)cs1", "activity change, positive = activation": "inactive: -4.9%"}, {"smiles": "COc1cc(/C=C(\\C#N)c2nc3ccc(C)cc3[nH]2)ccc1OC(C)C", "activity change, positive = activation": "inactive: 15.8%"}, {"smiles": "CC1(C)O[C@@H]2C[C@H]3[C@@H]4CCC5=CC(=O)C=C[C@]5(C)[C@@H]4[C@@H](O)C[C@]3(C)[C@]2(C(=O)CO)O1", "activity change, positive = activation": "inactive: -10.4%"}, {"smiles": "CCc1ccc(S(=O)(=O)c2c[nH]c3cc(OC)c(OC)cc3c2=O)cc1", "activity change, positive = activation": "inactive: 3.23%"}, {"smiles": "COc1ccc2cc3cc(C(=O)NCCc4ccccc4)sc3nc2c1Cl", "activity change, positive = activation": "inactive: 6.27%"}, {"smiles": "CCc1ccccc1N(C)S(=O)(=O)c1ccc2[nH]cc(C(=O)NCCOC)c(=O)c2c1", "activity change, positive = activation": "inactive: -22.5%"}, {"smiles": "CC(C)CCNC(=O)CN1C(=O)c2cccnc2Oc2ccccc21", "activity change, positive = activation": "inactive: -10%"}, {"smiles": "N#Cc1ccccc1S(=O)(=O)N1CCCC(c2nc3c(nnn3Cc3cccc(Cl)c3)c(=O)[nH]2)C1", "note": "(stereo not drawn)", "activity change, positive = activation": "inactive: -35.3%"}, {"smiles": "Cc1csc2nc(CCNS(=O)(=O)c3ccccc3)cn12", "activity change, positive = activation": "inactive: -7.31%"}, {"smiles": "O=C(NCc1ccco1)c1c[nH]c2ccc(S(=O)(=O)Nc3ccc(F)cc3F)cc2c1=O", "activity change, positive = activation": "inactive: -36.4%"}, {"smiles": "CCCCNc1nc2c(S(=O)(=O)c3ccc(Cl)cc3)nnn2c2ccsc12", "activity change, positive = activation": "inactive: -36.8%"}, {"smiles": "Cc1nn(-c2ccccc2)c2c1N(CCCC(=O)NCc1ccc(Cl)cc1)C(=O)CS2", "activity change, positive = activation": "inactive: 0.849%"}, {"smiles": "COc1cccc(CNC(=O)c2ccc3c(c2)N(Cc2ccc(C(F)(F)F)cc2)C(=O)c2ccccc2S3)c1OC", "activity change, positive = activation": "inactive: -29.4%"}, {"smiles": "CN1CCN(C(=O)c2cnn(-c3cccc(Cl)c3)c2C2CCN(C(=O)OC(C)(C)C)CC2)CC1", "activity change, positive = activation": "inactive: -6.29%"}, {"smiles": "Cc1ccc(CN(Cc2ccco2)C(=O)COc2ccc(Cl)cc2Cl)cc1", "activity change, positive = activation": "inactive: -37.2%"}, {"smiles": "COc1ccc(-c2nnc(SCC(=O)NCc3ccccc3)nc2-c2ccc(OC)c(OC)c2)cc1OC", "activity change, positive = activation": "inactive: -40.7%"}, {"smiles": "CCOc1ccccc1CNC(=O)CN(c1ccc(C)cc1)S(=O)(=O)N(C)C", "activity change, positive = activation": "inactive: -12.4%"}, {"smiles": "CC(C)(C)c1ccc(S(=O)(=O)c2cnc(SCC(=O)Nc3ccc(F)c(Cl)c3)[nH]c2=O)cc1", "activity change, positive = activation": "inactive: -9.78%"}, {"smiles": "CCOc1ccc(NC(=O)Cc2ccc(NC(=O)N3CCCCc4ccccc43)cc2)cc1", "activity change, positive = activation": "inactive: -16.4%"}, {"smiles": "COC(=O)c1ccc([C@H]2Nc3ccc(S(=O)(=O)Nc4ccc(C)cc4)cc3[C@H]3C=CC[C@H]32)cc1", "activity change, positive = activation": "inactive: -11.2%"}, {"smiles": "CCOC(=O)c1cc(-c2ccc(F)cc2)n(CC(=O)NCc2ccc(OC)cc2)c1C", "activity change, positive = activation": "inactive: -27.4%"}, {"smiles": "Cc1c(NC(C)C)c(=O)n(-c2ccccc2)n1C", "activity change, positive = activation": "inactive: 3.52%"}, {"smiles": "CCN(CCCNC(=O)CSc1cc(=O)n(C)c2cc(Cl)ccc12)c1cccc(C)c1", "activity change, positive = activation": "inactive: 0%"}, {"smiles": "Cc1c2cnn(-c3ccccc3)c(=O)c2c(C)n1CC(=O)N1CCN(c2ccc(F)cc2)CC1", "activity change, positive = activation": "inactive: -34.2%"}]}]}
